This is an account of results in US20240247076A1 (SUZHOU ALPHAMAB, published 2024).

Where a chain is given by its changes, count along the chain named.

Sequences and labels used below:
T1: mApple-chis (mouse, UniProt Q91Y47 19-389)
T1 construct: range 1-389; also called mapple-chis-biotin
T1 sequence (looked up): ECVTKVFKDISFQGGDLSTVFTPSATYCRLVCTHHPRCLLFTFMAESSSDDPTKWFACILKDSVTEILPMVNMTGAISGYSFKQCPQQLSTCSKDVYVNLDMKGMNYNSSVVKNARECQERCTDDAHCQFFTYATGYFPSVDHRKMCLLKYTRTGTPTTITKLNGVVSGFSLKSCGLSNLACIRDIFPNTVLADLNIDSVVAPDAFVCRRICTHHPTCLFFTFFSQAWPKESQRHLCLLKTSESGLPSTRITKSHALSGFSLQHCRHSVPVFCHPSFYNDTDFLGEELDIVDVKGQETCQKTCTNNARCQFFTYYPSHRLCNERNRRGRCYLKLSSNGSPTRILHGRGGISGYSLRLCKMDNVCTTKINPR

B1: huFE13huv1-Ld-Fc (Fc fusion)
chain: QVQLVESGGGSVQAGGSLRLSCAASGYTYSMGAMAWFRQAPGKEREGVALIATSSGFISYTDSVKGRFTISQDNSKNTVYLQMNSLRAEDTAVYYCAAGTQFSWSPGSYNYWGQGTLVTVSS[sequence of human IgG1 Fc omitted]
notes: Humanized VHH fused to human IgG1 Fc; 'Ld' not explained; also called huFE13huvl-Ld-Fc
B2: huFE56huv1-Ld-Fc (Fc fusion)
chain: QVQLVESGGGSVQAGGSLRLSCAASGHTYSSNYCMAWFRQAPGKEREGVAAIYSDGSTSYADSVKGRFTISKDNSKNTLYLQMNSLRAEDTAVYYCAATAYEGSWTGKQPLCLLYEYTYWGQGTLVTVSS[sequence of human IgG1 Fc omitted]
notes: Humanized VHH fused to human IgG1 Fc; 'Ld' not explained; also called huFE56huvl-Ld-Fc
B3: huFE97huv1-Ld-Fc (Fc fusion)
chain: QVQLVESGGGSVQAGGSLRLSCTASEFTFDDSDMAWYRQAPGNECELVSTITSDGGTYYADSVKGRFTISQDNSKNTMYLQMNSLRAEDTAVYYCAADQWGSAEGDCTSSYPGGYWGQGTLVTVSS[sequence of human IgG1 Fc omitted]
notes: Humanized VHH fused to human IgG1 Fc; 'Ld' not explained; also called huFE97huvl-Ld-Fc
B4: huFE148huv1-Ld-Fc (Fc fusion)
chain: QVQLVESGGGSVQAGGSLRLSCAASGYTFNNNFVGWFRQAPGKEREGVAAIYSLGGSTYYADSVKGRFTISQDNSKNTVYLQMNSLRAEDTAVYYCAGAITWVPPLSHRRYTYWGQGTLVTVSS[sequence of human IgG1 Fc omitted]
notes: Humanized VHH fused to human IgG1 Fc; 'Ld' not explained; also called huFE148huvl-Ld-Fc
B5: iFE97-Fc (Fc fusion)
chain: B3 chain with V5Q, S74A, S84N, R86K, A87P, L121Q
notes: VHH fused to human IgG1-Fc, made in HEK293; also called IFE97-Ld-Fc
B6: iFE148-Fc (Fc fusion)
chain: B4 chain with V5Q, A23V, S75A, N84D, R87K, A88P, V93T, L119Q
notes: VHH fused to human IgG1-Fc, made in HEK293; also called IFE148-Ld-Fc

The target in the first assay is T2, hApple-chis (human, UniProt P03951 part only).
T2 construct: range 1-387; also called happle-chis-biotin
Put plainly: BLI, antibody captured on sensor, antigen in solution. (In BLI a coated tip is dipped into the sample, and binding shifts an interference pattern.)
In the case of B1, binding was characterised by a dissociation constant (Kd) of 0.764 nM.

As for B2, the Kd – broadly, the constant that tells how readily two partners part at equilibrium – is < 0.001 nM.

Take B3: the Kd is < 0.001 nM.

B4 returned an equilibrium dissociation constant (Kd) of 0.37 nM.

The target of a further assay is T3, RabFXI-Apple-CHis protein (New Zealand rabbit).
T3 construct: also called FXI proteins of New Zealand rabbits
Described as above.
The molecule B1 came in with a dissociation constant Kd of 29.5 nM.

B3 displayed a Kd of 0.878 nM.

Turning to B4, binding was put at a Kd of 7.83 nM.

In another assay the target is activated human factor 11 protein (hFXIa) (human, UniProt P03951). The description is as above.
B1 had a dissociation constant (Kd) of 6.93 nM.

Molecule B2 displayed an equilibrium dissociation constant (Kd) of 28.8 nM.

In turn, B3 yielded a Kd of 1.42 nM.

B4 gave a Kd of 5.05 nM.

A further assay concerns the target human FXI in plasma (human, UniProt P03951). Put plainly: cell-based or functional assay.
As for B1, the “activity of FXI factor in human plasma at 0.1 µg/mL” value (shortened to “activity … at 0.1 µg/mL”) was 80%, the “activity of FXI factor in human plasma at 0.5 µg/mL” value (“activity … at 0.5 µg/mL” below) turned out to be 61.1%, the “activity of FXI factor in human plasma at 1 µg/mL” value (from here on “activity … at 1 µg/mL”) came out at 29.8% and the “activity of FXI factor in human plasma at 5 µg/mL” value (“activity … at 5 µg/mL” for short) worked out at 13.1%. Moreover, the “activity of FXI factor in human plasma at 10 µg/mL” value (“activity … at 10 µg/mL” for short) turned out to be 11.2%.

Regarding B2, the “activity … at 0.1 µg/mL” value was 87%, the “activity … at 0.5 µg/mL” value turned out to be 61.7%, the “activity … at 1 µg/mL” value was 33.4% and the “activity … at 5 µg/mL” value came to 1.7%. The “activity … at 10 µg/mL” value is 1.5%.

As for B3, the “activity … at 0.1 µg/mL” value came to 85.2%, the “activity … at 0.5 µg/mL” value was 60.9%, the “activity … at 1 µg/mL” value came out at 22.6% and the “activity … at 5 µg/mL” value is 1.6%. Also, the “activity … at 10 µg/mL” value worked out at 1.5%.

With B4, the “activity … at 0.1 µg/mL” value is 84.9%, the “activity … at 0.5 µg/mL” value stood at 69.8%, the “activity … at 1 µg/mL” value was found to be 48.3% and the “activity … at 5 µg/mL” value came to 30.9%. The “activity … at 10 µg/mL” value amounted to 22.2%.

For a further assay, the target named is T1, mApple-chis. Kind of assay: ELISA, Fc fusion on coated antigen. A general note: In an ELISA, binding on a coated surface is turned into a signal by an enzyme label.
B5: the EC50 (in general, the midpoint of the concentration-response curve) was determined as 0.0444 µg/mL.

Regarding B6, the EC50 is 0.0339 µg/mL.

The target of another assay is T4, recombinant human factor XI (hFXI) (human, UniProt P03951).
T4 construct: also called hFXI-Chis; hFXI-CHis
Kind of assay: BLI, antibody captured on sensor, antigen in solution.
Consider B1, for which the equilibrium dissociation constant (Kd) stood at 8.84 nM.

B2: the Kd is 3.97 nM.

Turning to B3, the Kd stood at 2.67 nM.

Regarding B4, the Kd turned out to be 2.64 nM.

Another assay has as its target T1, mApple-chis. Put plainly: BLI, antibody on protein A sensor, antigen in solution.
Consider B5, for which the Kd was < 0.001 nM.

Consider B6, for which the Kd worked out at 0.0314 nM.
